# Changes are numbered by the printed parent chain.
# T1: human PMEL17 (Homo sapiens, UniProt P40967)
# T1 construct: G-361 melanoma cell line expresses human PMEL17 at a lower level compared to the HKB11-human PMEL17 overexpressing cell line; endogenous in cells; host or cells: G-361 (human melanoma)
# T1 sequence (P40967 25-661): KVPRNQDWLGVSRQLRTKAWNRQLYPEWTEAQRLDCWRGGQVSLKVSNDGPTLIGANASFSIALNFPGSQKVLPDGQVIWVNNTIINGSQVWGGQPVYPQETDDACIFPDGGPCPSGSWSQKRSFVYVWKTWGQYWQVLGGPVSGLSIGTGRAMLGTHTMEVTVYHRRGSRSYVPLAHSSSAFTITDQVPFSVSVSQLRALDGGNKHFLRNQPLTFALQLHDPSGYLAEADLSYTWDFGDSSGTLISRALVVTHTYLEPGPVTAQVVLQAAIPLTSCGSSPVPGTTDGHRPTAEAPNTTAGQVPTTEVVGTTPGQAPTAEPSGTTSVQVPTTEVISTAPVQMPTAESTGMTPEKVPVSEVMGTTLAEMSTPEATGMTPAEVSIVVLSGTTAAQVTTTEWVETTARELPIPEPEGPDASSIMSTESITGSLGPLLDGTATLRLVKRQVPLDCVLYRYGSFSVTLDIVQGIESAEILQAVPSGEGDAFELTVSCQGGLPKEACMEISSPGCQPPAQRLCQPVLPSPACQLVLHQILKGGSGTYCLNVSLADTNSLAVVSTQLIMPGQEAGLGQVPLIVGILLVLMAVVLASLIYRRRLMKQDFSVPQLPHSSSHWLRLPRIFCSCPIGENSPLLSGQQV
# T2: mouse PMEL17 (Mus musculus, UniProt Q60696)
# T2 construct: B16-F10 (mouse PMEL17 expressing melanoma); endogenous in cells; host or cells: B16-F10 (mouse melanoma)
# T2 sequence (Q60696 24-626): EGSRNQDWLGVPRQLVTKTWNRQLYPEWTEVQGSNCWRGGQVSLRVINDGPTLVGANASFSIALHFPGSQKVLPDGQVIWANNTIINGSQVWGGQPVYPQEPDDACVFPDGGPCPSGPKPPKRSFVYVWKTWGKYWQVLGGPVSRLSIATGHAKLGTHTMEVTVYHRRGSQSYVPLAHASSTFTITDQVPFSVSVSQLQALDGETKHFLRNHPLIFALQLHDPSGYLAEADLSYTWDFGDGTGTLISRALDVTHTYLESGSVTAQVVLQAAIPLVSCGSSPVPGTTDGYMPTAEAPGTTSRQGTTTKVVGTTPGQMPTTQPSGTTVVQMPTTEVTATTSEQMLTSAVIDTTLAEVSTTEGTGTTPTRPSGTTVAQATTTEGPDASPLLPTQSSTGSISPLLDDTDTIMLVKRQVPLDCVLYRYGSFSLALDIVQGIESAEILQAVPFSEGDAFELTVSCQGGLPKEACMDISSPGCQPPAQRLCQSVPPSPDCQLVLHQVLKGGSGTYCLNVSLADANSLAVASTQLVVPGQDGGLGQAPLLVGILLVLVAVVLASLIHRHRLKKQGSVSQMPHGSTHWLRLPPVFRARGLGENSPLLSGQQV
# B1: Y010429: anti-PMEL17 antibody (IgG) (antibody, V domains shown)
# VH: [in this place about 100 residues]AYKLSWLDLWGQGTLVTVSS
# VL: DIQMTQSPSSLSASVGDRVTITCRASQSISSYLNWYQQKPGKAPKLLIYAASSLQSGVPSRFSGSGSGTDFTLTISSLQPEDFATYYCQQVWYAPVTFGQGTKVEIK
# B2: Y010415: anti-PMEL17 antibody (IgG) (antibody, V domains shown)
# VH: [in this place about 100 residues]SRLIAPWLDYWGQGTLVTVSS
# VL: B1 VL with W92Y, Y93G, A94S, V96P
# Legend:
# Type in all cases: binding
# PMEL17 = test: Cross-reactivity (cross-specificity profile) of anti-PMEL17 IgGs in dose response FACS; design: key: h/c/r/m: human/cyno/rat/mouse; h/c/r: human/cyno/rat; h/c/(m): human/cyno/mouse; h/c: human/cyno; details: h human, c cyno, r rat, m mouse
# Experimental: The cross-specificity of the IgGs was evaluated in does response FACS on G-361 (human melanoma), HKB11-cyno-PMEL17, HKB11-rat PMEL17 and B16-F10 (mouse PMEL17 expressing melanoma) (Table 3). Testing on G-361 was performed using a detection antibody labelled to PE. In contrast, an Alexa-Fluor labelled detection antibody had to be used for testing the candidates on the other cell lines so as to reach detectable signals.
# IgGs were classified into several epitope groups according to their cross-specificity profiles.
# UACC-62 = test: FACS titration of IgGs on UACC-62 cells; details: UACC-62, PE-labelled detection antibody
# Experimental: (§1) Purified IgGs were titrated on a variety of PMEL17 expressing and PMEL17 non expressing cell lines (for control) to determine EC50 values. Cells were harvested using Accutase, adjusted to ˜4×10^6 cells/ml into FACS buffer (PBS, 3% FCS and 0.02% Na-Azide) and kept on ice to avoid internalization. 15 μl of cell suspension/well were transferred into 384 well V-bottom plates (Greiner, Cat #781280) and incubated with 15 μl of IgGs at different concentrations (most commonly from 200 to 3.5×10−3 nM) for 1 hour at 4° C., gently shaking. Following incubation, cells were washed three times with FACS buffer. After each washing step, cells were centrifuged (250×g, 5 min, 4° C.) and carefully resuspended. 15 μl of detection antibody conjugated to PE (PE-conjugated goat anti-human IgG, F(ab′)2 fragment specific, 1:150 in FACS buffer; Jackson Immuno Research, #109-116-097) or Alexa Fluor (Alexa Fluor-conjugated goat anti-human IgG, F(ab′)2 fragment specific, 1:150 in FACS buffer; Jackson Immuno Research, #109-606-097) were added and samples were incubated for 45 minutes to 1 hour on ice in the dark, gently shaking. After 3 washing steps, cells were resuspended in 30 μl of FACS buffer and samples were measured using the IntelliCyt HTFC device. EC50 values were calculated using the Graphpad Prism software. […]
# human PMEL17 = target: T1, human PMEL17; test: Apparent affinity by FACS titration of IgGs on G-361 melanoma cell line; details: G-361, PE-labelled detection antibody
# Experimental: as §1, with “15 μl of detection antibody conjugated to PE (PE-conjugated goat anti-human IgG, F(ab′)2 fragment specific, 1:150 in FACS buffer; Jackson Immuno Research, #109-116-097) or Alexa Fluor (Alexa Fluor-conjugated goat anti-human IgG, F(ab′)2 fragment specific, 1:150 in FACS buffer; Jackson Immuno Research, #109-606-097) were added and samples were incubated for 45 minutes to 1 hour on ice in the dark, gently shaking.” left out
# (§2) The cross-specificity of the IgGs was evaluated in does response FACS on G-361 (human melanoma), HKB11-cyno-PMEL17, HKB11-rat PMEL17 and B16-F10 (mouse PMEL17 expressing melanoma) (Table 3). […]
# mouse PMEL17 = target: T2, mouse PMEL17; test: Apparent affinity by FACS titration of IgGs on B16-F10 melanoma cells; details: Alexa Fluor
# Experimental: as §1, with “15 μl of detection antibody conjugated to PE (PE-conjugated goat anti-human IgG, F(ab′)2 fragment specific, 1:150 in FACS buffer; Jackson Immuno Research, #109-116-097) or Alexa Fluor (Alexa Fluor-conjugated goat anti-human IgG, F(ab′)2 fragment specific, 1:150 in FACS buffer; Jackson Immuno Research, #109-606-097) were added and samples were incubated for 45 minutes to 1 hour on ice in the dark, gently shaking.” left out
# as §2
Molecule,Cross spe profile (based on C14 detection ab) (PMEL17),UACC-62 (PE) (UACC-62),EC50 (human PMEL17),EC50 (mouse PMEL17)
B1,h/c/r,Negative,2.5 nM,–
B2,h/c/r,Negative,0.3 nM,> 100 nM
